# Data: the supplement of paper PMC3724861
# This is one part of the list.
# Tested on: T1, Caupolican (Caup) homeodomain DNA-binding domain
# T1 sequence: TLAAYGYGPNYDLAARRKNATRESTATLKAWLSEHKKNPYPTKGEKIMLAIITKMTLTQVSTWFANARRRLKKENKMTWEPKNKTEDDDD
# Assay: PBM E-score (8-mer, recovered from the published 9-mer minima) (E-score (dimensionless, -0.5 to 0.5)); Drosophila protein; higher = stronger relative binding preference, active = 0.31 or more
# Procedure, shortened: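 Caup's homeodomain DNA-binding domain (residues 214-303) was made by in vitro transcription and translation and applied at 100 nM to custom-designed protein binding microarrays. Each value is an enrichment score that gives relative binding preference for a short DNA word, with higher meaning stronger. The 8-mer values were recovered from published 9-mer scores, each of which was the minimum of its two constituent 8-mer scores. A cutoff of 0.31 marks candidate sites.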
row,Sequence,PBM E-score
1,AAGCTGCC,inactive: -0.152
2,CAAAACTA,≥ 0.24
3,GTCGGTGA,inactive: -0.0468
4,GATCCCTA,inactive: -0.0989
5,CACGAAAA,inactive: 0.109
6,ACCTTGTA,active: 0.412
7,ATAATATG,inactive: 0.153
8,CCCCTGTC,inactive: -0.0357
9,CCGTTTTC,inactive: -0.0987
10,AACTCCCA,inactive: -0.0951
11,ACACCTTG,inactive: 0.201
12,AGGCCTAA,inactive: -0.0475
13,AACGTTAA,inactive: 0.116
14,ATTAGGAA,inactive: 0.0485
15,AGCGGACT,inactive: -0.149
16,CGGCTAAC,inactive: -0.0855
17,GATTTCCC,inactive: -0.0737
18,GGATCAAC,inactive: -0.00338
19,CAATGTAC,inactive: 0.287
20,GATGACTA,inactive: -0.029
21,ATACTAGC,inactive: 0.146
22,CCGGCCAG,inactive: -0.253
23,ATTTACAC,inactive: 0.259
24,CCCCATTA,inactive: -0.101
25,GAATGTAC,inactive: 0.165

row,Sequence,PBM E-score
1,AAGAACGC,inactive: -0.0522
2,CTCGAGCC,inactive: -0.14
3,ATTGGTTG,inactive: 0.064
4,ATAAAAAT,inactive: 0.0878
5,CTGTAATA,inactive: 0.193
6,CCCGGGGA,inactive: -0.26
7,ATTGCTGA,≥ 0.0762
8,GATAGAAC,inactive: 0.0699
9,AGATCTTC,inactive: -0.0139
10,ATCCGGAC,inactive: -0.0663
11,AATATCAA,inactive: 0.116
12,AGCTTGGA,inactive: -0.156
13,ACAGGTCC,inactive: 0.0377
14,TAACACAA,active: 0.319
15,AGACAAGA,inactive: 0.256
16,CGGTAGAC,inactive: 0.0049
17,AACGTCCT,≥ 0.0128
18,AATTGCGA,inactive: 0.0454
19,GAACACTC,inactive: 0.087
20,CTTTCGCC,inactive: -0.142
21,ACAACGCT,inactive: 0.0779
22,AGTAGGTA,inactive: 0.121
23,GCTGCCGA,inactive: -0.282
24,CCGCCTAA,inactive: -0.13
25,GTACTCTA,inactive: 0.131

row,Sequence,PBM E-score
1,TCCTTCGA,inactive: -0.134
2,ATAAGGTA,inactive: 0.0661
3,GAAAGTTC,inactive: -0.11
4,GATCGAAA,inactive: 0.00179
5,AAGAGTTC,inactive: -0.104
6,GAAGATTC,inactive: -0.0356
7,CGTCTAAA,inactive: -0.0517
8,CCGGCATA,inactive: -0.16
9,CTGAGTAC,inactive: 0.00015
10,GCTCGGCA,inactive: -0.0697
11,GGTGCGAC,inactive: -0.129
12,CAATCTAC,inactive: 0.0389
13,GCTCAATA,inactive: 0.0388
14,CCAGATAC,inactive: -0.0148
15,ATAAATAG,inactive: 0.108
16,CTGCAGAC,inactive: -0.0249
17,GCATTATA,inactive: 0.0926
18,AGGCCTAG,inactive: -0.139
19,AACCCTAT,inactive: 0.0597
20,AGTTCAAA,inactive: 0.0225
21,CAGAATAA,inactive: 0.0835
22,GGAATGAA,inactive: 0.00414
23,AAGTACAT,active: 0.402
24,TCAGTAGA,inactive: 0.00032
25,AAGTTCGC,inactive: -0.11

row,Sequence,PBM E-score
1,ACTGCCCC,inactive: -0.225
2,CTAGGAAG,inactive: 0.0196
3,TCCTGTCA,inactive: 0.199
4,AATTCCCC,inactive: -0.105
5,CACCCGTG,inactive: -0.0729
6,CGTGGTTC,inactive: -0.0425
7,GTCTATTA,inactive: 0.0665
8,CTTTAGAC,inactive: 0.0237
9,ACTCGCAG,inactive: -0.0895
10,GAACTGTC,inactive: 0.0387
11,TTATAAAA,inactive: 0.0405
12,GAGAGGAC,inactive: -0.058
13,CCTCAGCA,inactive: -0.0796
14,CGAACTCG,inactive: -0.0126
15,AGGCGATG,inactive: -0.0742
16,CCTTAGAG,inactive: -0.184
17,CCGTCGTA,inactive: 0.0177
18,CACTTGGC,inactive: -0.0642
19,CCGTAATC,inactive: 0.0401
20,AACTCCCC,inactive: -0.132
21,TCTACTCA,inactive: 0.0258
22,CCTATTCA,inactive: -0.00252
23,ACGAGATA,inactive: 0.127
24,GAAAATCC,inactive: -0.00172
25,AAGACCCT,inactive: -0.077

row,Sequence,PBM E-score
1,AAGGACCC,inactive: -0.181
2,GCGCACGA,inactive: -0.107
3,GGATATCA,inactive: 0.0642
4,GTATGGAC,inactive: 0.0661
5,CAGAGGCC,inactive: -0.195
6,CACTGCGG,inactive: -0.058
7,TCTCCACA,inactive: -0.0944
8,AACAATGC,inactive: 0.265
9,ATTGTTGC,inactive: 0.224
10,ACTTCAAT,inactive: 0.0416
11,AGTCCAAA,inactive: 0.0583
12,CCTTTTCA,≥ 0.0749
13,AAGCGCCA,inactive: -0.167
14,ATTCCCTA,≥ 0.0498
15,CACCCGAC,inactive: -0.0564
16,CTGGCGTC,inactive: -0.194
17,ACAGTTTC,inactive: 0.0345
18,TACCAAGA,inactive: 0.0618
19,ATGTCGGC,inactive: 0.176
20,AACTGCCC,inactive: -0.0495
21,GCAGTTGA,inactive: -0.0151
22,CCCCAGCA,inactive: -0.169
23,AATAGTCT,inactive: 0.0735
24,TCGCAGAA,inactive: -0.101
25,AGGCCACT,inactive: -0.16

row,Sequence,PBM E-score
1,CCACAGGA,inactive: -0.0146
2,AAGAGCCC,inactive: -0.231
3,TACACCAA,inactive: 0.184
4,CCAAAACG,inactive: -0.0574
5,AGATGTCA,inactive: 0.279
6,ACGTACAC,active: 0.333
7,TATTATAA,inactive: 0.204
8,AGCCTCGG,inactive: -0.191
9,AAAGGGCT,inactive: -0.155
10,ACGCGCGT,inactive: -0.0789
11,GCCCCGAC,inactive: -0.204
12,CGTACACC,inactive: 0.205
13,GGCTAAGA,inactive: -0.118
14,AGCGCCGG,inactive: -0.275
15,AACCAGTT,≥ 0.156
16,AGACATTG,inactive: 0.126
17,ACGGAGTA,inactive: -0.0665
18,TACTGAAA,inactive: 0.017
19,GGTGATCA,inactive: 0.0743
20,CAGGCTCA,inactive: -0.0139
21,AAGCTCCC,inactive: -0.184
22,GGTTATGA,inactive: 0.117
23,CTCAGACA,inactive: 0.0892
24,AATCATTG,inactive: 0.153
25,CCGACCTC,inactive: -0.11

row,Sequence,PBM E-score
1,TGTGGGAA,inactive: -0.00309
2,ATACGCAC,inactive: -0.0271
3,ATCGTCCA,inactive: -0.0793
4,GGCGTCGA,inactive: -0.144
5,AGCCTGAT,inactive: -0.0388
6,AAGAACTG,inactive: -0.0508
7,ACTAATGC,inactive: -0.0197
8,ACGCCGTC,inactive: -0.037
9,GAATCTCA,inactive: 0.0164
10,GAAGGTAA,inactive: 0.0165
11,CTCAGATC,inactive: -0.0165
12,GGATTTAC,inactive: 0.0403
13,CCCCACGG,inactive: -0.229
14,ATATCCTA,≥ 0.148
15,ACGTGCGG,inactive: -0.0708
16,CTCTTCTA,inactive: -0.00512
17,CACTATAG,inactive: 0.0938
18,GAGAAGGA,inactive: -0.104
19,CGGTCATC,inactive: -0.0235
20,AGCCACTA,inactive: -0.0387
21,CACATTAC,inactive: 0.141
22,AAAATGGG,inactive: -0.0394
23,AGCTCGGC,inactive: -0.192
24,AGCTACTC,inactive: 0.0368
25,GCTACATA,inactive: 0.248

row,Sequence,PBM E-score
1,CCACGACC,inactive: -0.0557
2,ATAAATAC,inactive: 0.237
3,GTAAAGCA,inactive: 0.156
4,CCGGGCCA,inactive: -0.362
5,CTGAGTGC,inactive: -0.148
6,CTTGGTTA,inactive: 0.0385
7,CTACTAAA,inactive: -0.0126
8,GACCCGTA,inactive: 0.0321
9,AGATCTAC,inactive: 0.0544
10,ATAGATGC,inactive: -0.0165
11,CAGTCGGA,inactive: -0.0896
12,CGAAACGA,inactive: -0.02
13,AAGTTTTG,inactive: 0.0307
14,GCGGGCGA,inactive: -0.23
15,CGCTACAA,inactive: 0.199
16,ACCTTATG,inactive: 0.0187
17,GTCAATAA,inactive: 0.21
18,TATGATGA,inactive: 0.0995
19,CAACTCTA,inactive: -0.0633
20,CGGAGATC,inactive: -0.0891
21,AAGCGATA,inactive: -0.0558
22,CGGACGGC,inactive: -0.255
23,ATGTGGCA,inactive: -0.0135
24,AGTTCGCC,inactive: -0.107
25,AATGCTAG,inactive: -0.0187

row,Sequence,PBM E-score
1,AAGTAATG,inactive: 0.0922
2,CGATTGCG,inactive: -0.0701
3,CCTTTACC,inactive: -0.0506
4,ACTTGATA,inactive: 0.177
5,CTGCGCCC,inactive: -0.292
6,GTTAGTAA,inactive: 0.177
7,AAGACTTG,inactive: 0.119
8,AGTTGCAG,inactive: -0.069
9,ATGTAGTG,inactive: 0.27
10,CTCACAGA,inactive: -0.0722
11,GTTATAAA,inactive: 0.197
12,ACAAAACA,inactive: 0.266
13,CCGGACGC,inactive: -0.208
14,AGCCATAG,inactive: 0.00654
15,AGTGGTGA,inactive: -0.0667
16,ATGCATAC,inactive: 0.104
17,CTTCCCCC,inactive: -0.308
18,ACTCGGCC,inactive: -0.0882
19,AACTCCCG,inactive: -0.127
20,TTACTCAA,inactive: 0.0597
21,CATGCCAA,inactive: 0.112
22,ATGAAAGA,inactive: 0.0472
23,CCACGAAA,inactive: -0.0708
